Measured values published in US12274759B2, “Affibody proteins specific for B7-H3 (CD276)” (THE BOARD OF TRUSTEES OF THE LELAND STANFORD JUNIOR …, priority 2018, dated 2025).

Tested on: MS1-WT cells
Assay: Flow chamber cell attachment assay under flow shear stress, MS1 wild-type cells
Assay type: cell-based, mouse
Protocol: Binding specificity of MB-B7-H3-affibody to the target B7-H3 was also assessed in cell culture experiments under flow shear stress conditions simulating flow in blood capillaries by using a parallel flow chamber experimental set-up (see FIG. 4). MS1 B7-H3+ cells between passages 2 and 4 were used in all experiments. Before flow chamber experiment, FACS analysis was performed in order to confirm B7-H3 expression of MS1 B7-H3+ cells. The geometric mean fluorescence intensity was determined using FlowJo software. MS1 B7-H3+ cells were grown on coated (Sigmacote; Sigma, St Louis, Mo) neutral-charged glass microscope slides (VWR, USA) for 24 hours and mounted on a parallel plate flow chamber (GlycoTech, Rockville, Md). […] The adhered microbubble number on the MS1 B7-H3+ cells monolayer was quantified manually by counting attached microbubbles on MS1 B7-H3+ cells with a phase-contrast bright-field microscope (Axiovert 25; Carl Zeiss, Thornwood, NY; original magnification, ×100) to assess the number of attached microbubbles per cell. […]
Flow chamber cell attachment assay. Binding specificity of MBABY-B7-H3 and MBAb-B7-H3 to the target B7-H3 was first assessed in cell culture experiments under flow shear stress conditions simulating flow in blood capillaries by using a flow chamber experimental set-up. […]

B1: MBABY-B7-H3: contrast microbubbles functionalized with ABYB7-H3 (biotinylated ABY on streptavidin-coated, lipid-shelled perfluorocarbon MB) (conjugate)
chain: AEAKYAKEKIFAVGEIYWLPNLTHGQIMAFIAALNDDPSQSSELLSEAKKLNDSQAPKHHHHHH
B1 was tested, and the “average number of microbubbles attached per MS1-WT cell” value (Example 1, flow chamber) was 0.57±0.18 MB/cell and the “number of MB attached to MS1WT cells” value (Example 3, flow shear stress conditions) was 1.5±0.3 MB/cell.
